The structures appear in SMILES notation. The campaign covered roughly 52,000 compounds. About 1,700 (3.3%) were called active. Cut-off read from the data, not from the text of the source: active = survival mostly below about 52% (no sharp cut-off); inactive = mostly above about 56%. The list shows a part of the results.

For the test, the system named is Wild type. As to the kind of experiment: S. aureus survival, RN4220 and DeltatarO strains – OD600, teichoic acid synthesis inhibitors, primary screen (AID 463173). The following applies: S. aureus RN4220 wild type/DeltatarO growth, OD600, 18 h, stronger effect = lower value, screened at 18.75 µg/mL (by protocol).
Take `CCOC(=O)Cn1nnnc1CN(CCc1ccc(OC)c(OC)c1)Cc1cc2c(C)ccc(C)c2[nH]c1=O`: the survival is inactive: 99%.
Regarding `Cc1nc2cc(-c3cccc(F)c3)nn2c(C)c1CCC(=O)N1CCN(c2ccc(F)cc2)CC1`, the survival was inactive: 63%.
The figure for `CN(C(=O)c1cc2sccc2n1C)C1CCCCC1` is inactive: 116%; for `O=C(Cn1nnc2sc3c(c2c1=O)CCCC3)Nc1ccc(F)c(Cl)c1` it is inactive: 33%; for `CCN1C(=O)c2ccccc2Sc2ccc(NC(=O)c3ccc(C)c(F)c3)cc21` it is inactive: 85%.
Next, `COc1cccc(NC(CNS(=O)(=O)c2ccc(C)cc2)c2ccccc2)c1` (centres undefined): inactive: 98%.
Next, `CN(Cc1ccccc1)c1ncnc2c1nc1n2CCCC1`: inactive: 65%; `CC(=O)Nc1ccc(Nc2cc(C)nc3ccccc23)cc1`: inactive: 111%.
Take `CCCS(=O)(=O)NCCc1csc2nc(-c3ccc(OC)cc3)nn12`: the survival is inactive: 63%.
The figure for `COc1ccc(C2NC(=O)NC(C)=C2C(=O)Nc2cc(C)cc(C)c2)c(OC)c1` (centres undefined) is inactive: 71%; for `Cc1ccccc1CNC(=O)CCCn1nc(C)c2sc3ccccc3c2c1=O` it is inactive: 92%.
With `CCc1c(C)nc2nncn2c1Nc1ccc(C)c(F)c1`, the survival is inactive: 83%.
On to `Cc1ccc(CS(=O)(=O)Cc2ccc(C(=O)NCCc3ccc(Cl)cc3)o2)cc1`, for which the survival was inactive: 91%.
The figure for `COc1cc(OC)cc(C(=O)Nc2ccc3nc(N4CCC(C)CC4)cc(C)c3c2)c1` is inactive: 68%; for `COc1cccc(C(=O)Nc2nnc(S(=O)(=O)N3CCOCC3)s2)c1` it is inactive: 84%; for `CCCCOc1cccc(C(=O)Nc2cccc3ccc(C)nc23)c1` it is inactive: 75%.
On to `CCC12CN3CC(CC)(CN(C1)C3c1ccc(OCc3ccccc3)cc1)C2=O` (centres undefined), for which the survival was inactive: 92%.
For `Cc1cc(C)c2c(=O)cc(C(=O)Nc3ccccc3Cl)oc2c1`, the survival is inactive: 88%.
Take `Cc1ccc2c(CC(=O)Nc3cc(C(F)(F)F)ccc3Cl)coc2c1C`: the survival is inactive: 95%.
Next, `CCOC(=O)c1c(C)[nH]c(C)c1S(=O)(=O)N1CCC(C(=O)Nc2ccccn2)CC1`: inactive: 57%; `O=C(Nc1ccc2c(c1)oc1ccccc12)c1cccs1`: inactive: 117%.
Take `Cc1ccc2oc(=O)n(CCNC(=O)Nc3ccccc3Cl)c2c1`: the survival was inactive: 90%.
Next, `COc1ccc2oc(=O)c(C(=O)N3CCC(C(N)=O)CC3)cc2c1`: inactive: 103%; `COc1ccc(C2CC(=O)Nc3c2c(=O)nc2c(C)cccn32)cc1` (centres undefined): inactive: 78%; `CCC(C)NC(=O)C1CCC(CNS(=O)(=O)c2cccc3nsnc23)CC1` (centres undefined): inactive: 89%.
The figure for `CCS(=O)(=O)N1CC(=O)N(c2ccc(C)c(C)c2)C(C)(C(=O)NC2CCCCC2)C1` (centres undefined) is inactive: 82%; for `O=C(Oc1ccc2ccccc2c1)N1CCOCC1` it is inactive: 103%; for `O=c1oc2ccc(Br)cc2cc1-c1nc(-c2ccccc2)no1` it is inactive: 66%.
Take `CCc1ccc(-c2nc3c(c(SCc4ccc(F)cc4)n2)Cc2c(CO)cnc(C)c2O3)cc1`: the survival was inactive: 85%.
The figure for `O=C(CN1CCCCC1)N/N=C/c1ccc(/C=N/NC(=O)CN2CCCCC2)cc1` is inactive: 79%; for `COc1ccc(Br)cc1CN1CCN(C(=O)c2cccc(OC)c2OC)CC1` it is inactive: 111%; for `CC1=C(C(=O)NCCc2ccc(Cl)cc2)C2(CCCCC2)OC1=O` it is inactive: 73%.
Next, `COc1cccc(CNC(=O)Cn2ncc3c4ccccc4n(C)c3c2=O)c1`: inactive: 87%; `COCCNC(=O)CCCn1c(SCC(=O)Nc2cccc(C)c2)nc2c(sc3ccccc32)c1=O`: inactive: 86%; `Cc1cccc(NC(=O)CSc2nc3c(oc4ccccc43)c(=O)n2C(C)C)c1`: inactive: 68%.
Consider `COc1ccc(N2CCN(C(c3ccccc3)c3nnc(-c4ccccc4Cl)o3)CC2)cc1` (centres undefined), for which the survival is inactive: 22%.
Next, `COc1ccc(C(=O)c2oc3ccccc3c2NC(=O)COc2c(C)cc(C)cc2C)cc1`: inactive: 68%; `O=C(CN1CCOCC1)Nc1c(-c2ccccc2)c2cc(Br)ccc2[nH]c1=O`: inactive: 119%.
The figure for `COc1cccc(CNC(=O)c2c(O)nc3ccccn3c2=O)c1` is inactive: 55%.
For `CCOc1ccc(N2CC(c3nc4ccccc4n3CC(C)C)CC2=O)cc1` (centres undefined), the survival is inactive: 83%.
Consider `COc1ccc(Cc2nnc(SCC(N)=O)o2)cc1`, for which the survival is inactive: 111%.
Next, `NC1=NN(c2cccc(C(=O)O)c2)C(=O)C1`: inactive: 94%; `Cc1n[nH]c(=S)n1CC1CCCO1` (centres undefined): inactive: 107%.
The figure for `COc1cc(-c2noc(-c3ccc(NCCc4ccccc4)c([N+](=O)[O-])c3)n2)cc(OC)c1OC` is inactive: 84%; for `Cc1ccc(C)c(N2CCN(C(=O)c3ccc4c(Cl)c5c(nc4c3)CCCC5)CC2)c1` it is inactive: 90%.
Next, `COc1cc(NC(=O)CCNS(=O)(=O)c2ccc3c(c2)CCN3C(=O)C2CC2)cc(OC)c1`: inactive: 82%.
`COCC(=O)N1CCc2cc(OC)c(OC)cc2C1COc1ccc2c(C)cc(=O)oc2c1` (centres undefined): the survival was inactive: 68%.
Consider `O=C(Nc1nc2nc(-c3ccccc3)cc(=O)n2[nH]1)c1ccc(F)cc1`, for which the survival was inactive: 92%.
With `N#Cc1ccccc1Cn1nnc2c(=O)[nH]c(C3CCCN(S(=O)(=O)c4ccc(F)cc4)C3)nc21` (centres undefined), the survival was inactive: 111%.
Next, `O=C(Nc1sc2c(c1C(=O)NCc1ccccc1)CCCC2)c1cc(=O)c2cc(Cl)ccc2o1`: inactive: 81%.
For the compound `CCc1ccccc1N1CC(c2nc3ccccc3n2Cc2cccc(C)c2)CC1=O` (centres undefined), the survival is inactive: 66%.
Next, `CCOc1ccccc1N1CC(c2nc3ccccc3n2CCCOc2ccccc2OC)CC1=O` (centres undefined): inactive: 79%; `Cc1ccc(N2C(=O)CC(N3CCc4ccccc43)C2=O)cc1Cl` (centres undefined): inactive: 104%.
The figure for `CCOc1ccc(S(=O)(=O)NCCc2sc(-c3ccc(C)cc3)nc2C)cc1` is inactive: 73%; for `COc1ccc(CNc2ccc(C)c(C)c2)c(OC)c1OC` it is inactive: 131%; for `CC1CCc2nn(CC(=O)Nc3cccc(C(F)(F)F)c3)c(=O)cc2C1` (centres undefined) it is inactive: 73%.
Next, `COc1cc(NC(=O)Cn2c(=O)n(C(C)C)c(=O)c3oc4ccccc4c32)cc(OC)c1`: inactive: 76%; `O=C(NCc1ccccc1)C1CCC(CNS(=O)(=O)c2ccc(Br)s2)CC1` (centres undefined): inactive: 73%.
On to `Cn1c(C(=O)NCc2ccc3c(c2)OCO3)cc2sccc21`, for which the survival is inactive: 113%.
